219 sequences from paper PMC4242493 can be followed below.

The list shows a part of the results. The list includes weakly bound sequences.

For this test, the target named is MaxL homodimer (UniProt P61244). Nature of the test: universal protein-binding microarray (PBM). The conditions noted are these: PBS-based mixture, 10 nM His-tagged protein dimer, 2% milk, 200 ng/uL BSA, 50 ng/uL salmon testes DNA, 0.02% TX-100; detection with Alexa 488 anti-His …; high values mean tight binding; most listed sequences are background and not binding sites; double strand, one strand shown.
UniProt P61244, sequence (P61244 whole entry): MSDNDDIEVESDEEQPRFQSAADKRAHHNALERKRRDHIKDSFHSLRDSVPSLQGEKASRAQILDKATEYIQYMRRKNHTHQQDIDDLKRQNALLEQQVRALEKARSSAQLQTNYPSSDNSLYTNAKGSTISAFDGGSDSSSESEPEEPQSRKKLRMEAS
As to CCGGAATA, the binding signal (normalized occupancy) amounted to 0.0723. The value for AGACCCAC was 0.0763. Consider AGTTGTAC, for which the binding signal (normalized occupancy) amounted to 0.0739. The same measure for TCGACAAA: 0.0722. With ATTGAGGC, the binding signal (normalized occupancy) is 0.0723.

As for CTACGGTA, the binding signal (normalized occupancy) amounted to 0.0724. The same measure for ATGGATAC: 0.0808; for TAGTAGCA: 0.0819; for GTAGTATA: 0.0841.

In the case of ACGCCCTC, the binding signal (normalized occupancy) was 0.0818. Regarding GTCCGGAC, the binding signal (normalized occupancy) was 0.0699.

For the sequence GTGTCTCA, the binding signal (normalized occupancy) stood at 0.0762. The value for GGTGGAAC was 0.0709; that for AGCTACGC was 0.0651; that for CTCAATCA was 0.0801. The value for GAGAGTAA was 0.0745. CTGAAACA: the binding signal (normalized occupancy) was 0.0774. In the case of AGCACCTA, the binding signal (normalized occupancy) is 0.0792. The value for AGCTCTAT was 0.0723.

Regarding CCGCGGTC, the binding signal (normalized occupancy) was determined as 0.0663. For CTACTTTA, the binding signal (normalized occupancy) is 0.0795. AGCCCTTC: the binding signal (normalized occupancy) came to 0.0713. As to GCGAATCA, the binding signal (normalized occupancy) stood at 0.0746. The same measure for ACGTGAGC: 0.107; for AATCACAC: 0.0864.

Regarding AACTCCTT, the binding signal (normalized occupancy) turned out to be 0.0715. On to AACGTATC, for which the binding signal (normalized occupancy) stood at 0.0812.

Turning to AAGCGTTA, the binding signal (normalized occupancy) came out at 0.0738. The value for ACTTCGTC was 0.0683. The same measure for AGCGAGGG: 0.0707; for ACACGGAA: 0.0755; for TCCGTCGA: 0.0681. The same measure for GCTTCAAA: 0.0732. As to CCAGGTAG, the binding signal (normalized occupancy) turned out to be 0.0757. On to ACGTGATC, for which the binding signal (normalized occupancy) turned out to be 0.108. The same measure for GTATGAGA: 0.0832; for CTGAGCAA: 0.0695. Turning to TAGGTTGA, the binding signal (normalized occupancy) was 0.0752. The same measure for CAGGCGCG: 0.0807; for ATCCGGCC: 0.0704; for AGTGGAAC: 0.0693. The value for ATATGAGA was 0.0843; that for AGAGGTGG was 0.0768. The value for ATAAATCG was 0.073; that for CAAGAGGA was 0.0733.

On to ATTGTCTC, for which the binding signal (normalized occupancy) stood at 0.0747. The value for AAAGACGC was 0.0704.

On to ACGCGTGA, for which the binding signal (normalized occupancy) turned out to be 0.114. In the case of GTGAGCGA, the binding signal (normalized occupancy) stood at 0.0747. On to ACAGTGCC, for which the binding signal (normalized occupancy) was found to be 0.0757. In the case of GCAATTGA, the binding signal (normalized occupancy) amounted to 0.0758. AGTACATG: the binding signal (normalized occupancy) came out at 0.0893. The same measure for AGAAACAA: 0.0746; for ATTATCCC: 0.0812. On to ATGGGTAG, for which the binding signal (normalized occupancy) was 0.0856. Take GAAAGTAC: the binding signal (normalized occupancy) worked out at 0.07. As to TACTCACA, the binding signal (normalized occupancy) was 0.0797. The same measure for CTAATATA: 0.0824; for AAGGAGAT: 0.0716; for GAATCCCA: 0.083.

As for GTCATCGA, the binding signal (normalized occupancy) worked out at 0.0798. The same measure for GCTGCTCC: 0.0674. The same measure for ATGATCTG: 0.0874; for AGCACCAC: 0.0757; for AAAAATCA: 0.0774. Regarding ACCGTTCT, the binding signal (normalized occupancy) worked out at 0.076. The value for AACGAACT was 0.0709; that for CCAAAGAC was 0.0698.

Regarding CGCCCCAA, the binding signal (normalized occupancy) came out at 0.0738. The same measure for GATGCTCC: 0.0753. The value for TGTCATAA was 0.0825. The value for CCATGTGC was 0.209; that for AGACAGGG was 0.0719.

For the sequence GCGGGCCA, the binding signal (normalized occupancy) came out at 0.0659. For the sequence GCCGCGTA, the binding signal (normalized occupancy) amounted to 0.0703. With CCTTATTA, the binding signal (normalized occupancy) came to 0.0769.

As to AGAAATGC, the binding signal (normalized occupancy) is 0.0774. The value for GCACGCGA was 0.109; that for CGCGGCCG was 0.0698; that for GACAATAA was 0.0828. The value for ATTCAAAG was 0.0759; that for ATCTCAGG was 0.0689; that for AAATTGCA was 0.0733. The same measure for ATGGGATG: 0.0929; for CAGGCCGG: 0.0694. As for TATGTTGA, the binding signal (normalized occupancy) turned out to be 0.0883. The same measure for CCTAATAG: 0.0773. The same measure for TAATCTAA: 0.0722; for GGGGTAAC: 0.0823.

In the case of ACTCACAT, the binding signal (normalized occupancy) amounted to 0.0886.

Turning to CCGGCATC, the binding signal (normalized occupancy) came out at 0.0727. The same measure for CTTTAAAG: 0.0726; for ACATTAAC: 0.0857; for ATAATTCA: 0.0809. As to GCGGCCAA, the binding signal (normalized occupancy) stood at 0.0703.

On to CATACAAA, for which the binding signal (normalized occupancy) came out at 0.0762. The same measure for AGTGTATC: 0.0882; for AACACCCG: 0.0752. In the case of CTGGAAGC, the binding signal (normalized occupancy) amounted to 0.0691.

As for AACGTTTA, the binding signal (normalized occupancy) is 0.0757.

As to AATGCACT, the binding signal (normalized occupancy) was 0.0779. For ATGTCGAC, the binding signal (normalized occupancy) was found to be 0.0863. The value for CATAATGC was 0.0816; that for ACTGGGCC was 0.0687; that for CACTATCA was 0.078. The same measure for TCGCACAA: 0.0786; for CTCTGCGC: 0.0691; for GGCCGGCC: 0.0653. Turning to GTCTGCAC, the binding signal (normalized occupancy) was determined as 0.0774. The same measure for ACACCCTG: 0.0751. In the case of AATGTCCA, the binding signal (normalized occupancy) came to 0.0813. For the sequence TAGACAAA, the binding signal (normalized occupancy) was determined as 0.0715. Take AAGTGTGT: the binding signal (normalized occupancy) amounted to 0.0824. Take ACGCGTCG: the binding signal (normalized occupancy) amounted to 0.0769. Turning to CCGTGAGG, the binding signal (normalized occupancy) came to 0.0784.

AACCCTAC: the binding signal (normalized occupancy) turned out to be 0.0811. As for AAAATAAT, the binding signal (normalized occupancy) worked out at 0.0717.

On to CTAACATC, for which the binding signal (normalized occupancy) amounted to 0.0796.

In the case of CAGCTCCC, the binding signal (normalized occupancy) worked out at 0.0688. The same measure for GCCGCCAC: 0.0728. Consider ACCCGCGT, for which the binding signal (normalized occupancy) amounted to 0.075. For the sequence GCTTTTTA, the binding signal (normalized occupancy) amounted to 0.0721.

In the case of AATTTCCA, the binding signal (normalized occupancy) was 0.0826. Consider CCGTTTCA, for which the binding signal (normalized occupancy) came out at 0.0737. Consider ACACGCGA, for which the binding signal (normalized occupancy) is 0.116. The value for AAGCCCCC was 0.0706; that for CGCGGGGC was 0.0766; that for GTTGTTTA was 0.0784.

With TGTAAAAA, the binding signal (normalized occupancy) stood at 0.0837.

AACTACGC: the binding signal (normalized occupancy) was 0.0734.

In the case of GTGTAGAA, the binding signal (normalized occupancy) was 0.0867. The same measure for GCCTCGTA: 0.0715; for CCCTCTCA: 0.0753; for AATCCGAA: 0.0699. The same measure for GACGCACC: 0.0708. With ACCTTTAT, the binding signal (normalized occupancy) worked out at 0.0781.

Take CAGTCTGA: the binding signal (normalized occupancy) was determined as 0.0736. As for AATCCGGA, the binding signal (normalized occupancy) is 0.0755. The same measure for ACTTGAAT: 0.0746; for CCCTTATC: 0.0746.

With CACACAAC, the binding signal (normalized occupancy) was determined as 0.0831.

Regarding AACTTTAT, the binding signal (normalized occupancy) was determined as 0.0745.

As for CGATGGTA, the binding signal (normalized occupancy) amounted to 0.074.

In the case of ATTATGCG, the binding signal (normalized occupancy) was found to be 0.0831. Take AGTTCATG: the binding signal (normalized occupancy) was 0.0778.

For GTGGCTAA, the binding signal (normalized occupancy) was determined as 0.0728. For ATTGAGTG, the binding signal (normalized occupancy) came out at 0.0821. The value for ACGGAAGT was 0.0703.

For AGTATAAT, the binding signal (normalized occupancy) was 0.0774. Consider CTAATCTA, for which the binding signal (normalized occupancy) worked out at 0.075.

As to AAGCAAGG, the binding signal (normalized occupancy) was found to be 0.0721.

For ACCTGGAC, the binding signal (normalized occupancy) is 0.0783. The value for TCTGCCCA was 0.0744; that for CGGAGGAA was 0.0675; that for AACGAAGA was 0.0711.

As for TGTAGGAA, the binding signal (normalized occupancy) was 0.0767. As to CGATTTTC, the binding signal (normalized occupancy) was determined as 0.0726. With AATTATGT, the binding signal (normalized occupancy) turned out to be 0.0811. The same measure for GGCAGGGA: 0.0782; for ATAATGCG: 0.0847; for GCGCACTA: 0.0726. With AATTCCCA, the binding signal (normalized occupancy) was determined as 0.0839. As to GCAGAACC, the binding signal (normalized occupancy) came out at 0.0764.

As for GATGTTGA, the binding signal (normalized occupancy) came to 0.0826.

On to ACAGACCG, for which the binding signal (normalized occupancy) is 0.075.

Take ACTGGAAA: the binding signal (normalized occupancy) is 0.0733. The value for GGGCTTTA was 0.0699; that for ACGCGTCT was 0.0797. The value for GATCACGC was 0.0977; that for ACAAGCTA was 0.0725.

Take CATGGGCC: the binding signal (normalized occupancy) was 0.0825. The value for TGAAACCA was 0.0777. The value for AACATAAC was 0.0778; that for ACGTAGGG was 0.0764. The same measure for CGGTCCTC: 0.0699. Consider AGCCGTAT, for which the binding signal (normalized occupancy) amounted to 0.0707. The value for CATAAATA was 0.0905; that for AGTCACGG was 0.0774. For the sequence ATCGTGCC, the binding signal (normalized occupancy) was 0.08.

Regarding CCGACCCA, the binding signal (normalized occupancy) is 0.0764. As to CACTAAGC, the binding signal (normalized occupancy) amounted to 0.0716. The value for ATAATCGG was 0.0725; that for AATTCTCC was 0.0715; that for CTCTATTC was 0.0729.

For GGAACCGA, the binding signal (normalized occupancy) amounted to 0.0693. Regarding ACACGATG, the binding signal (normalized occupancy) amounted to 0.0969. Consider ATGAACAA, for which the binding signal (normalized occupancy) was found to be 0.0807. The same measure for AGTCCGTG: 0.0793; for ATCCATCG: 0.0772. AGACCGGC: the binding signal (normalized occupancy) came to 0.0685. For AATTGAGC, the binding signal (normalized occupancy) stood at 0.0717.

Consider CAGGCCAA, for which the binding signal (normalized occupancy) stood at 0.0649.

Take ACATGGGG: the binding signal (normalized occupancy) amounted to 0.101. Regarding CGGTGTAC, the binding signal (normalized occupancy) amounted to 0.0764. Regarding GTTAAAAC, the binding signal (normalized occupancy) was 0.0728. The same measure for ACTCCTGG: 0.0701; for CGTCTGGA: 0.0713. The same measure for CAGTATCG: 0.0741; for CAAATGGA: 0.0758; for GTAGGGAA: 0.0754. The value for CACGGGCG was 0.081; that for GATCGATA was 0.0847.

ATTCCAGC: the binding signal (normalized occupancy) was 0.0738. The same measure for GACCCCGA: 0.0729; for CCTAACTC: 0.0729.

In the case of CATCCCCC, the binding signal (normalized occupancy) amounted to 0.0835. The value for CATCCGCG was 0.0845. Regarding ACATGGTA, the binding signal (normalized occupancy) amounted to 0.104. The value for GAGCTTCC was 0.0662. The same measure for AACAGGCG: 0.0783; for ATTCTGCA: 0.0731; for GGACTCAC: 0.0732. The same measure for CAAAGTTC: 0.0716; for AGTATCAT: 0.0853; for CGCCATTA: 0.0739.

Take GAATTATC: the binding signal (normalized occupancy) was 0.0819. As to GCCCCAAA, the binding signal (normalized occupancy) turned out to be 0.0667. The same measure for CTATACAG: 0.0822; for ACGTTGAA: 0.083.
